Data taken from the supplement of paper PMC3334620.
In all, about 33,000 sequences were measured (“E-score (-0.5 to 0.5)”: median about -0.036, highest 2% from about 0.37 on). Some of the results follow.

Target: T1, Yer064c (UniProt P40041)
T1 sequence: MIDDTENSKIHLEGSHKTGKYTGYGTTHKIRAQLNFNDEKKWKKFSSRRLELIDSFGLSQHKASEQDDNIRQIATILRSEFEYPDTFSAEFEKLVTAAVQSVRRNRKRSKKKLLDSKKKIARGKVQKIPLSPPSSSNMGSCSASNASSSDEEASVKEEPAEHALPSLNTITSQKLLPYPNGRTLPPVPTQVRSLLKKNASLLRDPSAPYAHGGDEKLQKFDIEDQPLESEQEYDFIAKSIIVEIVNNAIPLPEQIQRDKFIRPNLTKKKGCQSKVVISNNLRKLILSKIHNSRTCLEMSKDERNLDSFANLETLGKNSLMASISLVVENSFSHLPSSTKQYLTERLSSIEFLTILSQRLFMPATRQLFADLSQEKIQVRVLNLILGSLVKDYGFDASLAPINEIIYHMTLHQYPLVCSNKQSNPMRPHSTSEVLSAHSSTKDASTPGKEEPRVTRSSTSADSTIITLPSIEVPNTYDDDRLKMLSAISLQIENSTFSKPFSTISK
Experiment: PBM E-score (8-mer binding enrichment) (E-score (-0.5 to 0.5)); higher = stronger / more preferred TF binding; most listed sequences are background and not binding sites
Details: protein concentration: 200 nM; construct: GST-full length
Procedure, shortened: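 Each ungapped eight-base word and its reverse complement, pooled, received an E-score from the Universal PBM Analysis Suite. Underlying scans, normalised with masliner, recorded fluorescent anti-GST bound to GST-tagged yeast transcription factors. These were applied at about 100-200 nM to universal all-10-mer Agilent arrays double-stranded by primer extension.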

Row | Sequence | PBM E-score
1 | CGACAACC | -0.131
2 | AACCAAGA | 0.0436
3 | AAGGGATA | -0.153
4 | GCAAGCGA | -0.0499
5 | GATTTATA | 0.215
6 | CTGGCTAC | 0.0972
7 | CGGGCTGC | -0.0918
8 | ATGTGTCA | 0.224
9 | CACATATG | 0.0245
10 | ACAATCCT | -0.167
11 | AACCCTGC | -0.0666
12 | CGTAGCTA | -0.0295
13 | ACCCGCCC | 0.00329
14 | AACTCTGG | -0.0715
15 | GTACCTAA | -0.00197
16 | AATAATCC | 0.0648
17 | TATCCACA | -0.0336
18 | CTATGGAC | -0.0339
19 | ACGTCTTG | -0.147
20 | ATTGCTGG | -0.0212
21 | AGTTTCCA | -0.00668
22 | AACATACA | -0.0748

Row | Sequence | PBM E-score
23 | CGGCTTAA | 0.0628
24 | ACCGTGCG | 0.0224
25 | GTTCCTCA | -0.165
26 | AGCAATAG | -0.217
27 | AGAGGCTA | -0.253
28 | GTAGGCAA | -0.112
29 | ACGTCGTG | 0.0944
30 | GATCTACC | 0.0641
31 | CCCCACAG | -0.113
32 | GACTCCTA | 0.443
33 | AGCGTATG | -0.0255
34 | AGCATCGC | -0.239
35 | AAACGTTG | -0.292
36 | CCCGGGTA | 0.00097
37 | CTTAGAAG | 0.0289
38 | AACGACTT | 0.177
39 | CATTCTAC | -0.179
40 | CAGTCATG | 0.458
41 | CAATACTA | 0.0776
42 | CCAATAGA | -0.0567
43 | ACATTCTA | 0.0824
44 | AACCGTGC | -0.0656

Row | Sequence | PBM E-score
45 | CGATACCA | -0.128
46 | GGGTATAA | -0.108
47 | CTGACTAA | 0.48
48 | CGGTAGCC | 0.0131
49 | GAAGAATC | 0.228
50 | CTGTATCA | -0.0383
51 | AGTGGGAA | 0.0388
52 | ATTGTTGG | 0.0194
53 | CAGTTCGA | -0.145
54 | CACTCTGA | 0.0392
55 | CCGGGTAA | -0.0414
56 | GACTACCA | 0.413
57 | CGAGCCCC | -0.252
58 | GAGGCTGC | -0.246
59 | AGCACTAG | 0.012
60 | GCAGATAC | -0.0953
61 | CTGATATA | -0.047
62 | GTTCATCA | 0.0863
63 | CGATCACC | -0.0685
64 | ACGACTCT | 0.404
65 | CTGCGAAA | 0.0209
66 | CTGTAGTA | 0.13

Row | Sequence | PBM E-score
67 | AGCTGACT | 0.458
68 | CATCTGGA | -0.073
69 | GATTTTTA | 0.17
70 | CCTTCGAG | -0.261
71 | CCGGCGTA | -0.104
72 | AACGTGCA | -0.112
73 | GATAGCCC | -0.233
74 | ACGCAACT | -0.0859
75 | CTTGGATC | -0.153
76 | CGGTGGAA | -0.214
77 | AGGGAAAG | -0.163
78 | CAAGTCAG | 0.306
79 | AACTTAAG | 0.0989
80 | GAAGATAA | 0.181
81 | GAACTGCC | -0.214
82 | ATGGAGTC | 0.398
83 | GACCGATA | -0.139
84 | ATCTGCGA | -0.018
85 | CCCGATCG | -0.117
86 | ACTGTGGA | 0.0507
